# According to PubChem BioAssay AID504832 (National Center for Advancing Translational Sciences (NCATS), 2011):
# Hit rate of the full screen: of about 310,000 compounds, about 18,000 (5.8%) were called active. The shares of active, inactive and inconclusive entries below differ from those in the screen. Calls come from the whole dose curve; as a rule, active = well fitted inhibition curve with a large enough effect; inconclusive = small, poorly fitted or top-dose-only effect, or another doubt; inactive = no such curve, though single readings can be large or run the other way. Potencies of inconclusive entries are left out as doubtful fits.
# Test: Primary qHTS for delayed death inhibitors of the malarial parasite plastid, 48 hour incubation
# Conditions: P. falciparum luciferase growth in erythrocytes; series mostly up to 28.7 µM; activity change, negative = inhibition: at the top concentration
# How it was run: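 Parasite viability was followed by luminescence of a genomically integrated firefly luciferase. Cultures held 0.1% parasitemia at 2% hematocrit (final), incubated under 5% CO2 at 37 C.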
# % is set by controls: 0 for no effect and ±100 for the full control effect; potency is the fitted concentration of half-maximal effect; tags give direction and shape of the fitted curve.
Structure (SMILES),"activity change, negative = inhibition",Potency
Cn1c(C(=O)c2ccccc2)nc2ccccc21,inactive: 47.6%,
Cc1cc(F)ccc1S(=O)(=O)N1CCCOC1CNC(=O)C(=O)NCc1ccco1 (stereo not drawn),inactive: -14.4%,
CCC1(c2ccccc2)NC(=O)N(CC(=O)Nc2cc(S(=O)(=O)N3CCCCC3)ccc2N(C)C)C1=O (stereo not drawn),,"inconclusive [inhibitor, single point]"
COc1ccc2cc(C)c3nnc(SCC(=O)Nc4nc(-c5ccccc5)cs4)n3c2c1,,"inconclusive [inhibitor, single point]"
Cn1c2ccccc2c(=O)c2ccc(C#Cc3ccccn3)cc21,,"inconclusive [inhibitor, single point]"
C=CCN1C(=O)CN=C1Nc1ccc(F)cc1,,active: 10.4 µM
COc1cccc(-c2cc3nc4c(c(N5CCC6(CC5)OCCO6)n3n2)CCC4)c1,,"inconclusive [inhibitor, full curve]"
O=C(O)C1C2CCC(C2)C1C(=O)Nc1nc2ccccc2s1 (stereo not drawn),inactive: 4.16%,
COc1ccc2c(c1OC)C(=O)N1C2SC(C)(C)[C@H]1C(=O)NC1CC1 (stereo partly drawn),inactive: 14.4%,
N#Cc1cc(Oc2ccccc2)c(-n2nnc3ccccc32)cc1C#N,inactive: -0.709%,
CN1CCN(c2ccccc2NC(=O)COc2ccc(Cl)cc2)CC1,inactive: -17%,
CCOc1ccccc1C(=O)n1nc(C)cc1C,,"inconclusive [inhibitor, single point]"
O=C(Nc1ccc(F)c(Cl)c1)Nc1ccc(Cl)cn1,inactive: 2.56%,
CCc1ccccc1NC(=O)c1ccccc1Sc1ccc([N+](=O)[O-])cc1Cl,,active: 11.7 µM
COc1ccc(C2(CNC(=O)c3cccc([N+](=O)[O-])c3)CCOCC2)cc1OC,inactive: -0.328%,
S=C(NCCc1c[nH]c2ccccc12)NC1CCCC1,inactive: 17%,
Cc1cccc(Nc2nc(CC(=O)O)cs2)c1,inactive: 45.6%,
CC(C)CC(N=Cc1c(O)c2ccccc2oc1=O)C(=O)O (stereo not drawn),inactive: 8.1%,
CCOC(=O)c1c(NC(=O)c2cc(-c3ccc(O)cc3)on2)sc(C(C)=O)c1C,inactive: 32.2%,
N#Cc1cccc(Nc2c3c(nc4ccccc24)CCCC3)c1,,"inconclusive [inhibitor, single point]"
Cc1cccc(Nc2ncnc3onc(-c4ccc(F)cc4)c23)c1C,,"inconclusive [inhibitor, full curve, poor fit]"
NC(=O)C1CC(=O)N(c2ccc(OCc3c(Cl)cccc3Cl)cc2)C1 (stereo not drawn),,"inconclusive [inhibitor, single point]"
CCC(C)[C@H](NC(=O)OC(C)(C)C)C(=O)N/N=C/c1cccc2nccnc12 (stereo partly drawn),,"inconclusive [inhibitor, single point]"
